According to article PMC5700166:
This is a selection; strong and weak results do not stand in their true shares. The list includes weakly bound sequences.

How the values were obtained:
Test in all cases: protein-binding microarray (PBM)
Settings in all cases: PBM: ~300 nM protein, 6 mM HEPES pH 7.8, 80 mM KCl, 0.5 mM EDTA, 0.5 mM EGTA, 6% glycerol, 35 ng/ul poly-dIdC, 1% milk, 1 h, room temperature; Ap Aiptasia and Nv Nematostella (sea anemones) / Co Capsaspora / Aq Amphimedon (sponge) / Dm Drosophila / Hu human; RHD is the Rel homology domain; high values mean tight binding; most listed sequences are background and not binding sites; double strand, one strand shown
[1] = target: T1, GST-Ap-NF-kB RHD (UniProt A0A913YAJ5)
T1 sequence: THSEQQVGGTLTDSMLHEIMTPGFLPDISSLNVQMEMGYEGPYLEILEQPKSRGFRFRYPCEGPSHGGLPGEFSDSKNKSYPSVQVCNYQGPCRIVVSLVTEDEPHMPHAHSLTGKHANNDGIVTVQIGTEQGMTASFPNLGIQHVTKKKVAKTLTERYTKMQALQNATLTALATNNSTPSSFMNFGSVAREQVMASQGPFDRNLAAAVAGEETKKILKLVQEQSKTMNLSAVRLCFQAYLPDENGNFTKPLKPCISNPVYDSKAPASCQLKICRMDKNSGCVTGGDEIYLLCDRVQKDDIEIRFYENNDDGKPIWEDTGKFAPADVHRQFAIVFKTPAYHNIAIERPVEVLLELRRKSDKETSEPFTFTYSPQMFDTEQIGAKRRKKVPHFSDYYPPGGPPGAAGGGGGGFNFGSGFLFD

[2] = target: T2, GST-Nv-NF-kB (Cys allele) (UniProt E5G601)
T2 sequence: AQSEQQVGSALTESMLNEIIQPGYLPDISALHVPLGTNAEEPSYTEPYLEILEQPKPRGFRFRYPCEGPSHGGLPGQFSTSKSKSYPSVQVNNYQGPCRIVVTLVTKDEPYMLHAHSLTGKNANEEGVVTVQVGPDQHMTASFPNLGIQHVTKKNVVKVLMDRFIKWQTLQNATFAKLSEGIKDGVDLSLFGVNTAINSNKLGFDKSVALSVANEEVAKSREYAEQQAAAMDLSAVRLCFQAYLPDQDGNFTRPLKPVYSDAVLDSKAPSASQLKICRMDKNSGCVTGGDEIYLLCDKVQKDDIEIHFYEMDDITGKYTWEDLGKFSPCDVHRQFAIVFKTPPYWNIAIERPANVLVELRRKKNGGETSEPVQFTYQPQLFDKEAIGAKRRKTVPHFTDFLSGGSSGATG

[3] = target: T3, GST-Co-NF-kB (UniProt F1ARL5)
T3 sequence: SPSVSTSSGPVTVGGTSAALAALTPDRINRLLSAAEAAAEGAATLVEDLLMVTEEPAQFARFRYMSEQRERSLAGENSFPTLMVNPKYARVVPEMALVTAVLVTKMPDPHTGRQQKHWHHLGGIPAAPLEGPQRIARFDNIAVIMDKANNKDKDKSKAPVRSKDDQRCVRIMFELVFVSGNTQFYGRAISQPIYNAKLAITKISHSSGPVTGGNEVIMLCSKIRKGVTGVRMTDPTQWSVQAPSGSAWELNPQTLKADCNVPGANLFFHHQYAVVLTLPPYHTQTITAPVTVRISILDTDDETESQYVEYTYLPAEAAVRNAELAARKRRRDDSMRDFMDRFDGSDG

[4] = target: T4, GST-Dm-Relish (UniProt Q94527)
T4 sequence: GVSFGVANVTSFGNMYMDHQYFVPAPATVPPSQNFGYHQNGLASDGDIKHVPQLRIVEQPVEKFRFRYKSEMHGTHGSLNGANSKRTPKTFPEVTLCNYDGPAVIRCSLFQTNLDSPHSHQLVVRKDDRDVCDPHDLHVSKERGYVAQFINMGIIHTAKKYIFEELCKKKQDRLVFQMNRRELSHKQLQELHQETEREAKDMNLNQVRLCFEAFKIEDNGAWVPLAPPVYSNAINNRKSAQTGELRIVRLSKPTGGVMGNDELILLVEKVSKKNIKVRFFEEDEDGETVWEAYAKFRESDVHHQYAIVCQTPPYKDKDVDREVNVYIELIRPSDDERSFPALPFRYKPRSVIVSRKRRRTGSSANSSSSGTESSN

[5] = target: T5, GST-Aq-NF-kB (UniProt A9Y5G7)
T5 sequence: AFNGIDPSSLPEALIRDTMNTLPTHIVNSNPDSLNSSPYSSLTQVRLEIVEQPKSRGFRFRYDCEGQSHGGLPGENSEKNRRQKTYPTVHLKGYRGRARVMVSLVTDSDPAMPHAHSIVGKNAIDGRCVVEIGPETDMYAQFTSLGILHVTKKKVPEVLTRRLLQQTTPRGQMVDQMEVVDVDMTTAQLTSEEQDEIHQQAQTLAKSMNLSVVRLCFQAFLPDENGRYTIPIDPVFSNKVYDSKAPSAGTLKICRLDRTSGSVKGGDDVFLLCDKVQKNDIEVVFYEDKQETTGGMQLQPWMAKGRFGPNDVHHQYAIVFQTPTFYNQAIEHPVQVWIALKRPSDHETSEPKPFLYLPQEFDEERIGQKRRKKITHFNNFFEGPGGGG

Sequence	binding signal [1] [z-score]	binding signal [2] [z-score]	binding signal [3] [z-score]	binding signal [4] [z-score]	binding signal [5] [z-score]
CCGATTAACATCACAAGGCTGCGTGATGTTAATCGGGTCTTGATTCGCTTGACGCTGCTG	0.196	0.428	0.488	0.365	-0.326
CCGATTAACATCACGAAGCTCATTGATGTTAATCGGGTCTTGATTCGCTTGACGCTGCTG	-0.516	-0.666	-0.674	-0.818	-0.511
CCGATTAACATCACGAGTCGAGATGATGTTAATCGGGTCTTGATTCGCTTGACGCTGCTG	-0.239	-0.25	-0.386	-0.562	-0.749
CCGATTAACATCATTCTAGGGCGTGATGTTAATCGGGTCTTGATTCGCTTGACGCTGCTG	0.194	-0.541	0.52	-0.484	-0.175
CCGATTAACATCAGCGCCGTGTGTGATGTTAATCGGGTCTTGATTCGCTTGACGCTGCTG	0.188	-0.435	-0.345	0.979	-0.184
CCGATTAACATCAAATTTCCTAATGATGTTAATCGGGTCTTGATTCGCTTGACGCTGCTG	-0.463	0.071	0.251	0.00363	0.208
CCGATTAACATCAATAAACGCTGTGATGTTAATCGGGTCTTGATTCGCTTGACGCTGCTG	-0.388	0.0176	-0.0386	0.194	-0.392
CCGATTAACATCATACCGGGCTTTGATGTTAATCGGGTCTTGATTCGCTTGACGCTGCTG	-0.604	-0.635	-1.16	-0.665	0.281
CCGATTAACATCAAAATTTCCATTGATGTTAATCGGGTCTTGATTCGCTTGACGCTGCTG	-0.22	-0.35	-0.152	0.93	0.826
CCGATTAACATCACTTCAGCGGCTGATGTTAATCGGGTCTTGATTCGCTTGACGCTGCTG	-0.0357	-1.06	-0.527	0.181	-0.369
CCGATTAACATCATATAGGTCCGTGATGTTAATCGGGTCTTGATTCGCTTGACGCTGCTG	-0.253	0.257	0.0846	-0.644	-0.0208
CCGATTAACATCACGCTTTAGGCTGATGTTAATCGGGTCTTGATTCGCTTGACGCTGCTG	-0.557	-0.44	-0.376	-0.349	-0.628
CCGATTAACATCACTGGCTTCACTGATGTTAATCGGGTCTTGATTCGCTTGACGCTGCTG	-0.496	-1.05	-0.285	-0.235	-0.892
CCGATTAACATCATCGAGAGTGCTGATGTTAATCGGGTCTTGATTCGCTTGACGCTGCTG	-0.0834	0.019	-0.34	-0.881	-0.328
CCGATTAACATCATAAACAGCCATGATGTTAATCGGGTCTTGATTCGCTTGACGCTGCTG	-0.742	0.0173	0.0124	-0.072	-0.343
CCGATTAACATCACGTCTCCATGTGATGTTAATCGGGTCTTGATTCGCTTGACGCTGCTG	-0.537	0.756	0.176	0.787	-0.414
CCGATTAACATCACCCAGTTGCTTGATGTTAATCGGGTCTTGATTCGCTTGACGCTGCTG	0.25	0.0326	0.681	0.103	0.118
CCGATTAACATCAGCCAGCACTCTGATGTTAATCGGGTCTTGATTCGCTTGACGCTGCTG	-0.175	-0.374	-0.912	-0.588	-0.558
CCGATTAACATCACTGCGAAAAGTGATGTTAATCGGGTCTTGATTCGCTTGACGCTGCTG	-0.735	0.0805	-0.87	0.777	-0.565
CCGATTAACATCAGAAGTTCATGTGATGTTAATCGGGTCTTGATTCGCTTGACGCTGCTG	-0.0773	-0.996	0.119	-0.21	-0.363

Sequence	binding signal [1] [z-score]	binding signal [2] [z-score]	binding signal [3] [z-score]	binding signal [4] [z-score]	binding signal [5] [z-score]
CCGATTAACATCAAAATTCCGAATGATGTTAATCGGGTCTTGATTCGCTTGACGCTGCTG	-0.253	-0.0774	0.0689	0.352	0.621
CCGATTAACATCACCTCCGTATCTGATGTTAATCGGGTCTTGATTCGCTTGACGCTGCTG	0.402	0.0999	0.407	-0.353	-0.095
CCGATTAACATCAACGTTCAGGTTGATGTTAATCGGGTCTTGATTCGCTTGACGCTGCTG	-0.735	0.524	-0.625	-0.807	-0.635
CCGATTAACATCACCTTTAGGAGTGATGTTAATCGGGTCTTGATTCGCTTGACGCTGCTG	-0.452	-0.813	0.765	0.538	0.378
CCGATTAACATCAGTTTGTATTCTGATGTTAATCGGGTCTTGATTCGCTTGACGCTGCTG	-0.508	-0.0695	-0.334	0.264	-0.14
CCGATTAACATCAAATGACGGAATGATGTTAATCGGGTCTTGATTCGCTTGACGCTGCTG	-0.15	0.314	0.123	-0.182	-0.0805
CCGATTAACATCAACGAAAATGGTGATGTTAATCGGGTCTTGATTCGCTTGACGCTGCTG	-0.207	0.338	0.656	0.29	0.0637
CCGATTAACATCAAATCGTCCTTTGATGTTAATCGGGTCTTGATTCGCTTGACGCTGCTG	-0.465	-0.349	-0.771	-0.848	-0.324
CCGATTAACATCAGCCTTATAAATGATGTTAATCGGGTCTTGATTCGCTTGACGCTGCTG	-0.24	-0.412	0.287	-0.429	-0.168
CCGATTAACATCATACGAAACTGTGATGTTAATCGGGTCTTGATTCGCTTGACGCTGCTG	-0.0112	-1.26	-0.0714	-0.198	-0.421
CCGATTAACATCACTTCTAACATTGATGTTAATCGGGTCTTGATTCGCTTGACGCTGCTG	-0.545	-0.0639	-0.218	-0.309	-0.439
CCGATTAACATCAACAAAGGTGATGATGTTAATCGGGTCTTGATTCGCTTGACGCTGCTG	0.0136	0.13	0.0773	-0.578	0.202
CCGATTAACATCAAAAGCTTAGTTGATGTTAATCGGGTCTTGATTCGCTTGACGCTGCTG	-0.527	-0.839	-0.707	-0.688	-0.501
CCGATTAACATCAGCTGCGTTTATGATGTTAATCGGGTCTTGATTCGCTTGACGCTGCTG	-0.499	0.204	-0.9	-0.748	-0.732
CCGATTAACATCAAGAATTTCCATGATGTTAATCGGGTCTTGATTCGCTTGACGCTGCTG	-0.508	-0.155	-0.189	0.353	0.846
CCGATTAACATCAGTAAACTCCATGATGTTAATCGGGTCTTGATTCGCTTGACGCTGCTG	-0.136	-0.839	-0.482	1.1	-0.0191
CCGATTAACATCACGGCTCGTGATGATGTTAATCGGGTCTTGATTCGCTTGACGCTGCTG	-0.451	-1.15	-0.262	0.0889	-0.517
CCGATTAACATCACTGGAAAGGATGATGTTAATCGGGTCTTGATTCGCTTGACGCTGCTG	0.159	-0.206	0.378	0.021	-0.0719
CCGATTAACATCACGAAGAGGCATGATGTTAATCGGGTCTTGATTCGCTTGACGCTGCTG	0.269	0.142	0.513	-0.298	-0.291
CCGATTAACATCATGGTGCTAAGTGATGTTAATCGGGTCTTGATTCGCTTGACGCTGCTG	0.0933	0.125	0.609	-0.0072	-0.27
